# Measurements published in article PMC5892938.
# Some of the results follow. At the low end of the ranking, values are background and their order means little.
# Target: GST-SBP-SLBP (stem-loop binding protein) (UniProt Q14493)
# Test: targeted RNA Bind-n-Seq;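 note: DESeq read counts versus GST-SBP nonspecific binding control pulldown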
# Details: RBNS binding buffer: 25 mM Tris pH 7.5, 150 mM KCl, 3 mM MgCl2, 0.1% Tween, 0.5 mg/mL BSA, 1 mM DTT; 27 nM protein, 750 pM RNA pool; temperature not stated; high values mean tight binding
row,Sequence,binding signal (log2 fold change)
1,GGUCACGUCUCAAUCAACUCUUCUUCCAGGGAAAACCCUGGUUAUUUCAACAGCUCGCAGUCAAG,-0.18
2,GGUCACGUCUCAAUCAACUCAUCUCCCAGGGAAACCCCUGGUAUUUUCAACAGCUCGCAGUCAAG,0.247
3,GGUCACGUCUCAAUCAACUCAUUCCCAGGAGUUUGCUCCUGCUUAUUCAACAGCUCGCAGUCAAG,-0.0249
4,GGUCACGUCUCAAUCAACUCAAUUUCCAGGGAAACCCCUGGCUAUUUCAACAGCUCGCAGUCAAG,-0.0455
5,GGUCACGUCUCAAUCAACUCUUUUUCAGGAGUUUCCUCCUGUUUAUUCAACAGCUCGCAGUCAAG,-0.0666
6,GGUCACGUCUCAAUCAACUCACUAGAGGGGGGGAAAACCCCUUUGCCCUCGUAUUCAACAGCUCGCAGUCAAG,-0.254
7,GGUCACGUCUCAAUCAACUCAAUCUCAGGAGUUUACUCCUGCUAACUCAACAGCUCGCAGUCAAG,0.00855
8,GGUCACGUCUCAAUCAACUCUUUUCCAGGAGUUUCCUCCUGCUUAUUCAACAGCUCGCAGUCAAG,0.0117
9,GGUCACGUCUCAAUCAACUCUUCCUCCAGGGAAAACCCUGGUUAUGUCAACAGCUCGCAGUCAAG,-0.163
10,GGUCACGUCUCAAUCAACUCAAUUUCAGGAGUUUCCUCCUGUAUAGUCAACAGCUCGCAGUCAAG,0.0622
11,GGUCACGUCUCAAUCAACUCAUUUCCAGGAGUUUACUCCUGUAUAUUCAACAGCUCGCAGUCAAG,0.24
12,GGUCACGUCUCAAUCAACUCAGUCCCAGGAGUUUACUCCUGCAAUCUCAACAGCUCGCAGUCAAG,-0.0524
13,GGUCACGUCUCAAUCAACUCAAUCGAGGGGGGGAAAACCCCUUUGCCCUCAUAAUCAACAGCUCGCAGUCAAG,-0.0231
14,GGUCACGUCUCAAUCAACUCAACUUCCAGGGAAAUCCCUGGCUAUCUCAACAGCUCGCAGUCAAG,-0.156
15,GGUCACGUCUCAAUCAACUCAAUCUCCAGGGAAAUCCCUGGCAAUUUCAACAGCUCGCAGUCAAG,-0.0249
16,GGUCACGUCUCAAUCAACUCUUUCCCAGGAGUUUUCUCCUGUUAUCUCAACAGCUCGCAGUCAAG,0.081
17,GGUCACGUCUCAAUCAACUCUUCUUCAGGAGUUUUCUCCUGUAUACUCAACAGCUCGCAGUCAAG,0.09
18,GGUCACGUCUCAAUCAACUCUUCCUCAGGAGUUUACUCCUGCAUACUCAACAGCUCGCAGUCAAG,0.0409
19,GGUCACGUCUCAAUCAACUCAUUUCCAGGAGUUUUCUCCUGUAUUCUCAACAGCUCGCAGUCAAG,-0.00867
20,GGUCACGUCUCAAUCAACUCCAAAGAGGGGGGGAAAACCCCUUUGCCCUCACCAUCAACAGCUCGCAGUCAAG,-0.212
21,GGUCACGUCUCAAUCAACUCUUCUUCAGGAGUUUCCUCCUGCAAACUCAACAGCUCGCAGUCAAG,0.0748
22,GGUCACGUCUCAAUCAACUCCCUAGAGGGGGGGAAAACCCCUUUACCCUCAAUCUCAACAGCUCGCAGUCAAG,0.118
23,GGUCACGUCUCAAUCAACUCAUUAGAGGGGGGGAAAACCCCUUUACCCUCCAUUUCAACAGCUCGCAGUCAAG,-0.276
24,GGUCACGUCUCAAUCAACUCUAUGUCAGGAGUUUCCUCCUGUUAAUUCAACAGCUCGCAGUCAAG,-0.199
25,GGUCACGUCUCAAUCAACUCAAUCCCAGGAGUUUCCUCCUGUUAUUUCAACAGCUCGCAGUCAAG,0.129

row,Sequence,binding signal (log2 fold change)
1,GGUCACGUCUCAAUCAACUCAUCCGCAGGAGUUUUCUCCUGGUAAUUCAACAGCUCGCAGUCAAG,0.138
2,GGUCACGUCUCAAUCAACUCAUCCCCCAGGGAAACCCCUGGUAUACUCAACAGCUCGCAGUCAAG,0.0408
3,GGUCACGUCUCAAUCAACUCAUCUUCCAGGGAAAGCCCUGGCUAACUCAACAGCUCGCAGUCAAG,-0.127
4,GGUCACGUCUCAAUCAACUCUAUUUCCAGGGAAAGCCCUGGCUAAUUCAACAGCUCGCAGUCAAG,-0.294
5,GGUCACGUCUCAAUCAACUCAUCUUCCAGGGAAAGCCCUGGCAAACUCAACAGCUCGCAGUCAAG,-0.14
6,GGUCACGUCUCAAUCAACUCAAUCCCCAGGGAAAGCCCUGGCUAUCUCAACAGCUCGCAGUCAAG,-0.203
7,GGUCACGUCUCAAUCAACUCUUUCGCAGGAGUUUCCUCCUGGUUAUUCAACAGCUCGCAGUCAAG,-0.0225
8,GGUCACGUCUCAAUCAACUCAAUUCCAGGAGUUUCCUCCUGCUAUCUCAACAGCUCGCAGUCAAG,-0.0201
9,GGUCACGUCUCAAUCAACUCCCUAGAGGGGGGGAAAACCCCUUUACCCUCAUCAUCAACAGCUCGCAGUCAAG,-0.151
10,GGUCACGUCUCAAUCAACUCUUCGCCCAGGGAAAGCCCUGGUAAUCUCAACAGCUCGCAGUCAAG,-0.179
11,GGUCACGUCUCAAUCAACUCUAUUUCCAGGGAAAUCCCUGGCGUAUUCAACAGCUCGCAGUCAAG,0.037
12,GGUCACGUCUCAAUCAACUCAACUUCCAGGGAAAACCCUGGCUUUUUCAACAGCUCGCAGUCAAG,0.00556
13,GGUCACGUCUCAAUCAACUCAACUUCAGGAGUUUUCUCCUGCUUAUUCAACAGCUCGCAGUCAAG,-0.0413
14,GGUCACGUCUCAAUCAACUCUUUUUCAGGAGUUUUCUCCUGCAUUCUCAACAGCUCGCAGUCAAG,-0.106
15,GGUCACGUCUCAAUCAACUCUAGUCCCAGGGAAAUCCCUGGCAUAUUCAACAGCUCGCAGUCAAG,-0.0478
16,GGUCACGUCUCAAUCAACUCAUCAGAGGGGGGGAAAACCCCUUUGCCCUCCACAUCAACAGCUCGCAGUCAAG,0.401
17,GGUCACGUCUCAAUCAACUCAACUCCCAGGGAAAACCCUGGCUUUCUCAACAGCUCGCAGUCAAG,0.128
18,GGUCACGUCUCAAUCAACUCUAUCCCCAGGGAAACCCCUGGUAUUUUCAACAGCUCGCAGUCAAG,-0.206
19,GGUCACGUCUCAAUCAACUCAAUCCCAGGAGUUUACUCCUGUUAAUUCAACAGCUCGCAGUCAAG,-0.136
20,GGUCACGUCUCAAUCAACUCAUCUCCCAGGGAAAGCCCUGGUUAAUUCAACAGCUCGCAGUCAAG,-0.134
21,GGUCACGUCUCAAUCAACUCUUUCUCAGGAGUUUCCUCCUGUAAUGUCAACAGCUCGCAGUCAAG,-0.0675
22,GGUCACGUCUCAAUCAACUCUUCUUCCAGGGAAAGCCCUGGCAUAUUCAACAGCUCGCAGUCAAG,-0.0767
23,GGUCACGUCUCAAUCAACUCCUAAGAGGGGGGGAAAACCCCUUUGCCCUCAGAAUCAACAGCUCGCAGUCAAG,-0.291
24,GGUCACGUCUCAAUCAACUCUCACGAGGGGGGGAAAACCCCUUUACCCUCAACAUCAACAGCUCGCAGUCAAG,-0.52
25,GGUCACGUCUCAAUCAACUCUUCUCCAGGAGUUUACUCCUGUUUAUUCAACAGCUCGCAGUCAAG,-0.0975

row,Sequence,binding signal (log2 fold change)
1,GGUCACGUCUCAAUCAACUCUAAAGAGGGGGGGAAAACCCCUUUGCCCUCAACUUCAACAGCUCGCAGUCAAG,0.209
2,GGUCACGUCUCAAUCAACUCAUCUUCAGGAGUUUUCUCCUGCAAUCUCAACAGCUCGCAGUCAAG,0.0281
3,GGUCACGUCUCAAUCAACUCUAUCCCAGGAGUUUUCUCCUGCUUAUUCAACAGCUCGCAGUCAAG,0.204
4,GGUCACGUCUCAAUCAACUCUAUGGAGGGGGGGAAAACCCCUUUACCCUCAACCUCAACAGCUCGCAGUCAAG,0.00788
5,GGUCACGUCUCAAUCAACUCCUAAGAGGGGGGGAAAACCCCUUUGCCCUCAAACUCAACAGCUCGCAGUCAAG,0.0771
6,GGUCACGUCUCAAUCAACUCAUUUCCCAGGGAAAACCCUGGUAUAUUCAACAGCUCGCAGUCAAG,-0.0565
7,GGUCACGUCUCAAUCAACUCUAUAGAGGGGGGGAAAACCCCUUUACCCUCACCAUCAACAGCUCGCAGUCAAG,0.221
8,GGUCACGUCUCAAUCAACUCAUCUCCAGGAGUUUGCUCCUGCAAUUUCAACAGCUCGCAGUCAAG,0.0771
9,GGUCACGUCUCAAUCAACUCAUUUCCAGGAGUUUCCUCCUGUUAACUCAACAGCUCGCAGUCAAG,-0.0064
10,GGUCACGUCUCAAUCAACUCUAUCUCCAGGGAAAGCCCUGGCAUGUUCAACAGCUCGCAGUCAAG,0.103
11,GGUCACGUCUCAAUCAACUCUAUCCCCAGGGAAACCCCUGGCUUUUUCAACAGCUCGCAGUCAAG,-0.115
12,GGUCACGUCUCAAUCAACUCAAUGUCAGGAGUUUCCUCCUGUUUUUUCAACAGCUCGCAGUCAAG,0.0608
13,GGUCACGUCUCAAUCAACUCAUCCUCCAGGGAAAACCCUGGUUAUCUCAACAGCUCGCAGUCAAG,0.189
14,GGUCACGUCUCAAUCAACUCAUUCUCAGGAGUUUGCUCCUGCUUAUUCAACAGCUCGCAGUCAAG,0.141
15,GGUCACGUCUCAAUCAACUCUUCUUCCAGGGAAAUCCCUGGCUUACUCAACAGCUCGCAGUCAAG,-0.0266
16,GGUCACGUCUCAAUCAACUCAAUCCCAGGAGUUUGCUCCUGCUAUUUCAACAGCUCGCAGUCAAG,-0.0993
17,GGUCACGUCUCAAUCAACUCUACUCCAGGAGUUUUCUCCUGCUAUUUCAACAGCUCGCAGUCAAG,0.125
18,GGUCACGUCUCAAUCAACUCUUCCCCAGGAGUUUUCUCCUGUAAUUUCAACAGCUCGCAGUCAAG,0.0741
19,GGUCACGUCUCAAUCAACUCUUUUCCCAGGGAAAACCCUGGCAAAUUCAACAGCUCGCAGUCAAG,0.0181
20,GGUCACGUCUCAAUCAACUCAAUUCCAGGAGUUUGCUCCUGCUUAUUCAACAGCUCGCAGUCAAG,0.102
21,GGUCACGUCUCAAUCAACUCAGUCUCAGGAGUUUCCUCCUGCAAUUUCAACAGCUCGCAGUCAAG,-0.0445
22,GGUCACGUCUCAAUCAACUCAAUCGAGGGGGGGAAAACCCCUUUACCCUCAACUUCAACAGCUCGCAGUCAAG,-0.28
23,GGUCACGUCUCAAUCAACUCUACUUCAGGAGUUUACUCCUGCUAUCUCAACAGCUCGCAGUCAAG,-0.0433
24,GGUCACGUCUCAAUCAACUCUCACGAGGGGGGGAAAACCCCUUUACCCUCAAUAUCAACAGCUCGCAGUCAAG,-0.134
